Patent publication US20230210967A1, “IMPROVED PEPTIDE VACCINE” (BRIGHTPATH BIOTHERAPEUTICS CO., LTD., priority 2020, published 2023)
Where a SMILES comes first, the peptide text is derived from it. Bridges are numbered along the chain shown (N, C = ends).

Assays:
anti-CD40 antibody (IgG) = target: T1, anti-CD40 antibody (IgG) (Homo sapiens, UniProt P01857, L117A/L118A); test: Analysis of affinity of peptide for IgG (BIAcore 8K); type: binding; details: anti-CD40 antibody immobilized on CM5 sensor chip, peptide 3 nM to 243 nM, single kinetic mode; for kon: read-out: Association rate constant (Ka); for koff: read-out: Dissociation rate constant (Kd)
T1 construct: a secretion signal, a heavy-chain variable region, and a heavy-chain constant region were connected in tandem; anti-CD40 heavy-chain variable region (FGK45 clone, AEI27236.1, if the anti-mouse CD40 antibody was used); made in house; host or cells: ExpiCHO cells
Experimental: Peptide (3-1) (SEQ ID NO: 30), peptide (3-2) (SEQ ID NO: 41), peptide (3-3) (SEQ ID NO: 42), peptide (3-4) (SEQ ID NO: 43), and peptide (4) (negative control, SEQ ID NO: 31) were used as the peptides to be evaluated. For the H-2Kb restricted OVA-derived peptides having the aforementioned four different IgG binding peptide sequences, the binding activities to the antibody were evaluated. The IgG for which the affinity was evaluated was immobilized to a CM5 sensor chip (GE Health care) using the anti-CD40 antibody created in Example 1. Specifically, the sample solution of each peptide was prepared by 3-fold dilution series from 3 nM to 243 nM, measured and analyzed with respect to the anti-CD40 antibody immobilized onto the CM5 sensor chip using BIAcore 8K (GE Health care) in the single kinetic mode. The dissociation constant was calculated using Biacore Insight Evaluation software to analyze the observation results.

wild-type C57BL/6 mice [1] = test: Immunity induction test 1 in wild-type mice (comparison with conventional vaccine regimen); type: in vivo; details: peptide (3-1) 21.1 micro g, with or without anti-mouse CD40 antibody 400 micro g and PolyIC:LC 8 micro g; s.c. day 0 and 7, spleen day 14; FIG. 8
Experimental: 7 week-old, female, wild-type C57BL/6 mice (CLEA Japan, Inc.) were divided into five groups, with six mice per group, and experiments were performed with the group composition in Table 4.
Specifically, each drug was subcutaneously administered to the mice of each group every 7 days twice in total (on day 0 and day 7 when the first administration day was taken as day 0) . […] Induction of Ova specific T cells was evaluated based on the proportion of tetramer-positive cells in the CD8-positive T cells.

wild-type C57BL/6 mice [2] = test: Immunity induction test 5 in wild-type mice (CD40 or PD-L1 antibody conjugates); type: in vivo, mouse; details: peptide (3-1) 10.5 micro g, without antibody or with anti-CD40 or anti-PD-L1 antibody 200 micro g, PolyIC:LC 8 micro g; s.c. day 0 and 7, spleen day 14; FIG. 16
Experimental: In this example, 7 week-old, female, wild-type C57BL/6 mice (CLEA Japan, Inc.) were first divided into four groups with five mice per group, and experiments were performed with the group composition in Table 9.
Specifically, each drug was subcutaneously administered to the mice of each group every 7 days twice in total (on day 0 and day 7 when the first administration day was taken as day 0).

wild-type C57BL/6 mice [3] = test: Immunity induction test 6 in wild-type mice (conjugate vs non-conjugating peptide plus antibody); type: in vivo, mouse; details: peptide (3-1) or peptide (4) 10.5 micro g + anti-CD40 or anti-PD-L1 antibody 200 micro g + PolyIC:LC 8 micro g; s.c. day 0 and 7, spleen day 14; FIG. 17
Experimental: 7 week-old, female, wild-type C57BL/6 mice (CLEA Japan, Inc.) were divided into five groups, with six mice per group, and experiments were performed with the group composition in Table 10.
Specifically, each drug was subcutaneously administered to the mice of each group every 7 days twice in total (on day 0 and day 7 when the first administration day was taken as day 0) .

T1 sequence (P01857 1-330 isoform P01857-1 L117A/L118A, other chains not shown): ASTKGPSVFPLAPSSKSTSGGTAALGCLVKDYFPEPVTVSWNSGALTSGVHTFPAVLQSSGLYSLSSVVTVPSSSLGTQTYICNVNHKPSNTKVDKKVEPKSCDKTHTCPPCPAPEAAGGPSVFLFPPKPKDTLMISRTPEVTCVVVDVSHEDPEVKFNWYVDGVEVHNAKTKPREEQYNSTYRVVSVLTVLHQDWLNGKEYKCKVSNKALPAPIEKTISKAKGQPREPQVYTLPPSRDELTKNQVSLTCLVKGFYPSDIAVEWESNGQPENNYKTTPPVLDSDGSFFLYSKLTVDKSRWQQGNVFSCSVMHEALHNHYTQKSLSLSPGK

Row | Kd (anti-CD40 antibody (IgG)) [nM] | kon (anti-CD40 antibody (IgG)) [M⁻¹ s⁻¹] | koff (anti-CD40 antibody (IgG)) [s⁻¹] | Affinity (KD) (anti-CD40 antibody (IgG)) | Compound | Induction of Ova specific T cells (proportion of tetramer-positive cells in CD8-positive T cells) (wild-type C57BL/6 mice [1]) | Ova-specific T cell induction (wild-type C57BL/6 mice [2]) | Induction of Ova-specific T cells (wild-type C57BL/6 mice [3])
1 | 64.9 | 331000 | 0.0215 |  | CC[C@H](C)[C@H](NC(=O)[C@H](CO)NC(=O)[C@H](CCC(=O)O)NC(=O)[C@H](CC(C)C)NC(=O)[C@H](CCC(N)=O)NC(=O)[C@@H](N)CCC(=O)O)C(=O)N[C@H](C(=O)N[C@@H](CC(N)=O)C(=O)N[C@@H](Cc1ccccc1)C(=O)N[C@@H](CCC(=O)O)C(=O)N[C@@H](CCCCN)C(=O)N[C@@H](CC(C)C)C(=O)N[C@H](C(=O)N[C@@H](CCC(=O)O)C(=O)N[C@@H](Cc1c[nH]c2ccccc12)C(=O)N[C@H](C(=O)NCC(=O)N1CCC[C@H]1C(=O)N[C@@H](CC(=O)O)C(=O)N[C@H]1CSSC[C@@H](C(=O)N[C@H](C(=O)N[C@@H](Cc2ccccc2)C(=O)N[C@@H](Cc2c[nH]cn2)C(=O)O)[C@@H](C)O)NC(=O)[C@H](Cc2c[nH]c3ccccc23)NC(=O)[C@H](C(C)C)NC(=O)[C@H](CC(C)C)NC(=O)[C@H](CCC(=O)O)NC(=O)CNC(=O)[C@H](CCCNC(=N)N)NC(=O)[C@H](Cc2c[nH]cn2)NC(=O)[C@H](Cc2ccc(O)cc2)NC(=O)[C@H](C)NC1=O)[C@@H](C)O)[C@@H](C)O)[C@@H](C)CC [Peptide (3-1), EQLESIINFEKLTEWT GPDCAYHRGELVWCTFH] (H-EQLESIINFEKLTEWTGPDCAYHRGELVWCTFH-OH; disulfide 20-30; N-terminus and C-terminus assumed) | an ability to promote T cell induction was exhibited | an ability to promote T cell induction was shown | 
2 |  | 275000 | 0.0181 | higher affinity than peptide (3-2) | CC[C@H](C)[C@H](NC(=O)[C@H](CO)NC(=O)[C@H](CCC(=O)O)NC(=O)[C@H](CC(C)C)NC(=O)[C@H](CCC(N)=O)NC(=O)[C@@H](N)CCC(=O)O)C(=O)N[C@H](C(=O)N[C@@H](CC(N)=O)C(=O)N[C@@H](Cc1ccccc1)C(=O)N[C@@H](CCC(=O)O)C(=O)N[C@@H](CCCCN)C(=O)N[C@@H](CC(C)C)C(=O)N[C@H](C(=O)N[C@@H](CCC(=O)O)C(=O)N[C@@H](Cc1c[nH]c2ccccc12)C(=O)N[C@H](C(=O)NCC(=O)N1CCC[C@H]1C(=O)N[C@@H](CC(=O)O)C(=O)N[C@H]1CSSC[C@@H](C(=O)N[C@H](C(=O)N[C@@H](Cc2ccccc2)C(=O)N[C@@H](Cc2c[nH]cn2)C(=O)O)[C@@H](C)O)NC(=O)[C@H](Cc2c[nH]c3ccccc23)NC(=O)[C@H](C(C)C)NC(=O)[C@H](CC(C)C)NC(=O)[C@H](CCC(=O)O)NC(=O)CNC(=O)[C@H](CCCNC(=N)N)NC(=O)[C@H](Cc2c[nH]cn2)NC(=O)[C@H](Cc2c[nH]c3ccccc23)NC(=O)[C@H](C)NC1=O)[C@@H](C)O)[C@@H](C)O)[C@@H](C)CC [Peptide (3-3), EQLESIINFEKLTEWT GPDCAWHRGELVWCTFH] (H-EQLESIINFEKLTEWTGPDCAWHRGELVWCTFH-OH; disulfide 20-30 (inferred); N-terminus and C-terminus assumed) |  |  | 
3 |  |  |  | low affinity | EQLESIINFEKLTEWT GPDCAYHRGEAAACTFH [Peptide (4), control peptide, negative control, reference compound] |  |  | T cell induction was exhibited

Row | Compound | Kd (anti-CD40 antibody (IgG)) [nM] | kon (anti-CD40 antibody (IgG)) [M⁻¹ s⁻¹] | koff (anti-CD40 antibody (IgG)) [s⁻¹] | Affinity (KD) (anti-CD40 antibody (IgG)) | Induction of Ova specific T cells (proportion of tetramer-positive cells in CD8-positive T cells) (wild-type C57BL/6 mice [1]) | Ova-specific T cell induction (wild-type C57BL/6 mice [2]) | Induction of Ova-specific T cells (wild-type C57BL/6 mice [3])
4 | CC[C@H](C)[C@H](NC(=O)[C@H](CO)NC(=O)[C@H](CCC(=O)O)NC(=O)[C@H](CC(C)C)NC(=O)[C@H](CCC(N)=O)NC(=O)[C@@H](N)CCC(=O)O)C(=O)N[C@H](C(=O)N[C@@H](CC(N)=O)C(=O)N[C@@H](Cc1ccccc1)C(=O)N[C@@H](CCC(=O)O)C(=O)N[C@@H](CCCCN)C(=O)N[C@@H](CC(C)C)C(=O)N[C@H](C(=O)N[C@@H](CCC(=O)O)C(=O)N[C@@H](Cc1c[nH]c2ccccc12)C(=O)N[C@H](C(=O)NCC(=O)N1CCC[C@H]1C(=O)N[C@@H](CC(=O)O)C(=O)N[C@H]1CSSC[C@@H](C(=O)N[C@H](C(=O)N[C@@H](Cc2ccccc2)C(=O)N[C@@H](Cc2c[nH]cn2)C(=O)O)[C@@H](C)O)NC(=O)[C@H](Cc2c[nH]c3ccccc23)NC(=O)[C@H](C(C)C)NC(=O)[C@H](CC(C)C)NC(=O)[C@H](CCC(=O)O)NC(=O)CNC(=O)[C@H](CC(C)C)NC(=O)[C@H](Cc2c[nH]cn2)NC(=O)[C@H](Cc2c[nH]c3ccccc23)NC(=O)[C@H](C)NC1=O)[C@@H](C)O)[C@@H](C)O)[C@@H](C)CC [Peptide (3-4), EQLESIINFEKLTEWT GPDCAWHLGELVWCTFH] (H-EQLESIINFEKLTEWTGPDCAWHLGELVWCTFH-OH; disulfide 20-30 (inferred); N-terminus and C-terminus assumed) |  | 250000 | 0.00444 | higher affinity than peptide (3-2) and peptide (3-3) |  |  | 
